The results in this text go back to the RNAGym collection of RNA variant scans (doi:10.7554/elife.90254).

First the molecules themselves.
B1: OR4K15 (parent)
chain: GUUAACGGUCAUAGGCCAUGGAAACUAGGAGCACCAUUUCGCUGCCAGUGAAGAAAUGAACAAAGAAAAUCUGGGCCAGGCAGGCAUCAAAAGAAAUAGUCUUGCGCUCAACCAGAAAGUCUGUAAUCAUUUUAAGGGUA

The source gives no read counts; variants with many changes may rest on few reads.

In this series the parent is B1. As to the kind of experiment: self-cleavage, relative activity (ratio to wild type); higher = more cleavage; in vitro, sequencing; the parent is a self-cleaving ribozyme.
For the variant GUUAACGGUCAUAGGCCACGGAAACUAGGAGCACCAUUACGCUGCCAGUGAAGAAAUGAACAAAGAAAGUCUGGGCCAGGCAGGCAUCAAAAGAAAUAGUCUUGCGCUCAACCAGAAAGUCUGUAAUCAUUUUAAGGGUA [U19C U39A A69G], the self-cleavage amounted to 1.65.
As for GUUAACGGUCAUAGGCCACGGAAACUAGGAGCACCAUUUCUCUGCCAGUGAAGAAAUGAACAAAGAAAAUCUGGACCAGGCAGGCAUCAAAAGAAAUAGUCUUGCGCUCAACCAGAAAGUCCGUAAUCAUUUUAAGGGUA [U19C G41U G75A U122C], the self-cleavage was 0.02.
Turning to GUUAACGGUCAUAGGCCACGGAAACUAGGAGCACCAUUUCGCUGCCAGUGAAGAAAUGAACAAAGAAAAUCUGGGCCAGGCAGGCAUCAAAAGAAAUAGUCUUGCGCUUAACCAGAAGGUCUGUAAUCAUUUUAAGGGUA [U19C C109U A118G], the self-cleavage came to 0.5.
Regarding GUUAACGGUCAUAGGCCACGGAAACUAGGAGCACCAUCUCGCUGCCAGUGAAGAAAUGAACAAGGAAAAUCUGGGCCAGGCAGGCAUCAAAAGAAAUAGUCUUGCGCCCAACCAGAAAGUCUGUAAUCAUUUUAAGGGUU [U19C U38C A64G U108C A140U], the self-cleavage is 0.01.
For GUUAACGGUCAUAGGCCACGGAAACUAGGAGCACCAUUUCGCUGCCAGUGAAGAAAUGAACAAAGAAGAUCUGGGCCAGGCAGGCAUCAAAAGAAAUAGUCUCGCGCUCAACCAGAAAGUCUGUAAUCAUCUUAAGGGUA [U19C A68G U103C U131C] the value was 0.89.
As for GUUAACGGUCAUAGGCCACGGAAACUAGGAGCACCAUUUCGCUGCCAGUGAAGAAAUGAACAAAGAAAAUCUGGGCCAGGCAGGCAUCGAAAGAAAUAGUCUUGCGCUCAACCAGUAAGUCUGUAAUCACUUUAAGGGUA [U19C A89G A116U U130C], the self-cleavage was 0.11.
Turning to GUUAACGGUCAUAGGCCACGGAAACUAGGAGCACCAUUUCGCUGCCAGUGAAGAAAUGAACAAAGAAAAUCUGGGCCAGGCAGGCAUCGAAAGAAAUAGCCUUGCGCUCAACCAGAAAGUCUGUAAUCAUUUUAAGGGUA [U19C A89G U100C], the self-cleavage is 1.61.
For the variant GUUAACGGUCAUAGGCCACGGAAACUAGGAGCACCAUUUCGCUGCCAGUGAAGAAAUGAACAAAGAAGAUCUGGGCCAGGCAGGCAUCACAAGAAAUAGUCUUGCGCUCAACCAGAAAGUCUGUAAUCAUUUUAGGGGUA [U19C A68G A90C A135G], the self-cleavage is 0.92.
For GUUAACGGUCAUAGGCCACGGAAACUAGGAGCACCAUUCCGCUGCCAGUGAGGAAACGAACGAAGAAAAUCUGGGCCAGGCAGGCAUCAAAAGAAAUAGUCUUGCGCUCAACCAGAAAGUCUGUAAUCAUUUUAAGGGUA [U19C U39C A52G U57C A62G] the value was 0.94; for GUUAACGGUCAUAGGCCACGGAAACUAGGAGCACCAUUUCGCUGCCAGUGAAGAAAUGAACAAAGAAAAUCUGGGCCAGGCAGGCAUCAAAAGAAGUAGUCUUGCGCUCAACCAGAAAGUCUGUAAUCACUUUAAGGGUA [U19C A96G U130C], 1.52.
Take GUUAACGGUCAUAGGCCACGGAAACUAGGAGCACCAUUUCGCUGCCAGUGAAGAAAUGAACAAAGAAAAUCUGGGCCAGGCAGGCAUCAAAAGAUAUAGUCUUGCGCUCAACCAGAAAGUCUGUAGUCAUUUUAUGGGUA [U19C A95U A126G A135U]: the self-cleavage is 1.09.
As to GUUAACGGUCAUAGGCCACGGAAACUAGGAGUACCAUUUCGCUGCCAGUGAAGAAAUGAACAAAGUAAAUCUGGGCCAGGCAGGCAUCAGAAGAAAUAGUCUUGCGCUCAACCAGAAAGUCUGUAAACAUUUUAAGGGUA [U19C C32U A66U A90G U127A], the self-cleavage was 1.92.
On to GUUAACGGUCAUAGGCCACGGAAACUAGGAGGACCAUUUCGCUGCCAGUGAAGAAAUGGACAAAGAGAAUCUGGGCCAGGCAGGCAUCAAAAGAAAUAGUCUUGCGCUCAACCAGUAAGUCUGUAAUCAUUUUAAGGGUA [U19C C32G A59G A67G A116U], for which the self-cleavage amounted to 0.18.
For GUUAACGGUCAUAGGCCACAGAAACUAGGAGCACCAUUUCGCUGCCAGUGGAGAAAUGAACAAAGAAAAUCUGGGCCAGGCAGGCAUCAAAAGAAAUAGUCUUGCGCUCAACCAGAAAGUCUGUAAUCAUUUUAAGGGUA [U19C G20A A51G], the self-cleavage worked out at 2.34.
As for GUUAACGGUCAUAGGCCACGGAAACUAGGAGCACCAUUUCGAUGCCAGUGAAGGAAUGAACAAAGAAAAUCUGGGCCAGGCAGGCACCAAAAGAAAUAGCCUUGCGCUCAACCAGAAAGUCUGUAAUCAUUUUAAGGGUG [U19C C42A A54G U87C U100C A140G], the self-cleavage came to 1.88.
Turning to GUUAACGGUCAUAGGCCACGAAAACUAGGAGCACCAUUUCGCUGCCAGUGAAGAAAUGAACAAAGAAAAUCUGGGCCAGGCAGGCAUCAAAAGAAAUAGUCUUGCGCUCAACCAGAAAGUAUGUAAUCAUUUUAAGGGUA [U19C G21A C121A], the self-cleavage was found to be 2.1.
For GUUAACGGUCAUAGGCCACGGAAACUAGGAGCACCACUUCGCUGCCAGUGAAGAAAUGAACAAAGAAAAUCUGGGCCAGGCAGGCAUCAAAAGAAGUAGUCUUGCGCUCAACCAGAAAGUCUGUAAUCAUUUUAAGGGUA [U19C U37C A96G] the value was 0.42; for GUUAACGGUCAUAGGCCACGGAAACUAGGAGCACCAUUUCGCUGCCAGUGAAGAAAUGAACAAAGAAAAUCUGGGCCAGGCAGGCAUCAAAAGAAAUUGUCUUGCGCUCAACCAGAAAGUCUGUGAUCAUUUUAAGGGUA [U19C A98U A125G], 1.09.
Turning to GUUAACGGUCAUAGGCCACGGAAACUAGGAGCACCAUUUCGCUGCCAGUGAAGAAAUGAACAAAGAAAAUCUGGGCAGGGCAGGCAUCAAAAGAAAUAGUCUUGCGCUCAACCAGGAAGUCUGUAAUCACUUUAAGGGUA [U19C C77A A78G A116G U130C], the self-cleavage worked out at 0.14.
The value for GUUAACGGUCAUAGGCCACGGAAACUAGGAGCACCAUUUCGCUGCCAGUGAAGAAAUGAACAAAGAAAAUCUGGGCCAGGCAGGCAUCAAAAGAGAUAGUCUUGCGCUCAACCAGGAAGUCUGUAAUCAUUUUAAGGGUA [U19C A95G A116G] was 0.45.
